Experimental data taken from article PMC12040169 (PLOS Biology, 2025).
This is one part of the list.

Test system: T1, C. trachomatis L2/434/Bu expressing GFP (CTL2-GFP)
T1 construct: L2/434/Bu GFP intracellular growth in HeLa cells
Design: species or system HeLa; C. trachomatis total inclusion area by high-content imaging, normalised to DMSO
Conditions: total inclusion area; 28.5 h, 10 µM; inhibitor
Method in brief: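 Bulk GFP and resorufin signals were read first. Wells were then fixed, stained with Hoechst and imaged to detect GFP inclusions and host nuclei. MICs followed the previously described calculation.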

SMILES	% of control remaining
CN(C)C(=O)[C@H]1CN2CCC1C[C@@H]2Cn1cc(CCO)nn1 (stereo partly shown) [CBK289089]	109.41
O=C(O)c1ccccc1Nc1c2ccccc2nc2ccccc12 [CBK263921]	76.2117
Cn1cccc1C(=O)NCc1ccc(OC2CCNCC2)cc1 [CBK036360T]	60.4408
c1ccc(-c2nc(C3CCCC3)n3ccccc23)cc1 [CBK149260]	91.6296
CCOC(=O)N1CCN(C(C(=O)O)c2c[nH]c3cc(OCc4ccccc4)ccc23)CC1 (stereo not shown) [CBK286689]	97.9849
COc1cccc2cc(C(=O)Nc3ccc4[nH]ccc4c3)oc12 [CBK149819]	85.6805
CCCN1CCN(c2ncnc3sc(C4COc5ccccc5O4)cc23)CC1 (stereo not shown) [CBK269396]	64.4247
Cn1cnc(S(=O)(=O)N(c2ccc(C(C)(C)C)cc2)C2CCNCC2)c1 [CBK165046T]	82.8874
CCCC/C=C/c1cnc(N)c(N[C@@H](C)c2ccccc2)n1 [CBK063722]	81.186
OC(Cn1c(Cc2ccccc2)nc2ccccc21)Cn1c2ccccc2c2ccccc21 (stereo not shown) [CBK262570]	110.626
Cc1nn(C)c(C)c1C(C)NS(=O)(=O)Cc1cccc(F)c1 (stereo not shown) [CBK281396]	90.0409
COc1ccc2c(c1)nc(SCC(O)c1ccccc1)n2C (stereo not shown) [CBK262508]	92.0197
O=C(O)CSc1nnc(-c2ccc(S(=O)(=O)N3CCCCCC3)cc2)o1 [CBK300508]	111.258
OCCN1CCN(c2nc(C3CCOC3)cn3ccnc23)CC1 (stereo not shown) [CBK037931]	112.592
Nc1nc(CCC(=O)N2CCCC(c3cc(O)ncn3)C2)cs1 (stereo not shown) [CBK306976]	65.4457
O=C(CCn1c(C(F)F)cc2cccnc21)NCc1ccncc1 [CBK285027]	84.8959
CCC(C)c1ccc(NC(C)C(=O)Nc2ccc3[nH]c(=O)[nH]c3c2)cc1 (stereo not shown) [CBK296694]	98.6156
CS(=O)(=O)N(Cc1ccccc1F)c1ccccc1C(=O)O [CBK287239]	88.5567
CC(=O)Nc1cccc(-c2cnc(N)c(N3CCN(CCN(C)C)CC3)n2)c1 [CBK063472]	110.385
COc1cccc(CN(C)C2CCN(C)CC2)c1OC [CBK261532]	87.7216

SMILES	% of control remaining
C=Cn1ncc(CN(C)Cc2nc3ccccc3[nH]2)c1C [CBK283170]	105.624
CCOc1ccccc1OCCCOc1ccc(C(=O)O)cc1 [CBK295144]	87.6339
Cc1ccccc1Nc1nc(N)nc(CN2CCCC2)n1 [CBK306152]	19.6414
Cc1cc(C2CCCN2C(=O)c2cnn3c(C)cc(C)nc23)on1 (stereo not shown) [CBK305634]	51.9697
CN(C)c1nc(NCc2ccccc2)nc(SCC(=O)Nc2ccccc2Cl)n1 [CBK267190]	115.411
O=C(NCc1ccco1)/C(=C\c1ccccc1)NC(=O)c1ccc(Br)cc1 [CBK263701]	103.829
CCC(C(=O)Nc1ccc(OC(C)=O)cc1C(=O)O)c1ccccc1 (stereo not shown) [CBK269685]	69.427
COc1ccc(-c2cccc(N3CCN(CCN4CCCC4)CC3)n2)cc1OC [CBK037680]	79.2176
COc1cc(-c2ccc(N)c3ccccc23)cc(OC)c1OC [CBK084332]	58.815
CCOc1ccc(CN2CCN(CCCc3ccccc3)CC2)cc1 [CBK264153G]	105.21
CCOc1ccc(-c2cncc(N3CCN(C(=O)c4ccco4)CC3)n2)cc1 [CBK065860]	64.5392
CC(=O)NCc1cccc(-c2cncc(C(=O)Nc3ccc4c(c3)OCCO4)c2)c1 [CBK161009T]	65.6978
O=C(Nc1ccnn1Cc1cccs1)N1Cc2cnn(CCO)c2C1 [CBK307150]	28.7299
CC(=O)c1ccc(NC(=O)CC2SC(=N)NC2=O)cc1 (stereo not shown) [CBK265625]	112.782
O=C(NC1CCN(Cn2nnc3ccccc3c2=O)CC1)C1CC1 [CBK305584]	23.3319
N#Cc1c(-c2ccc(Cl)cc2)c[nH]c1N [CBK019323]	89.8893
Cc1cc(CNC(=O)[C@@H]2Cc3cn(C)c4cccc(c34)[C@H](CC(C)C)N2)no1 [CBK289420]	102.491
Nc1ncc(-c2cccc(C(=O)O)c2)nc1-c1ccc(O)cc1 [CBK200420]	101.998
COC(=O)C1=C(C)OC(n2cccc2)=C(C#N)C1c1cc(OC)c(O)c(OC)c1 (stereo not shown) [CBK293994]	111.828
COc1ccc2c(c1)C1(CC(=O)N(Cc3ccccc3)C1=O)C(=O)N2CCCN1C(=O)c2ccccc2C1=O (stereo not shown) [CBK075501]	129.903
